From PubChem BioAssay AID485364 (National Center for Advancing Translational Sciences (NCATS), 2010)
“And” between values parts separate entries of the source, which are not always exact repeats. Equal entries are not always repeated. Screen size: about 360,000 compounds; about 11,000 (3.1%) were called active. Inconclusive results, whose numbers are uncertain, are shown with a selection of clear calls. Calls come from the whole dose curve; as a rule, active = well fitted inhibition curve with a large enough effect; inconclusive = small, poorly fitted or top-dose-only effect; inactive = no such curve, though single readings can be large or run the other way. Potencies of inconclusive entries are doubtful fits and often do not repeat.

biological target: Schistosoma mansoni thioredoxin glutathione reductase (TGR) (UniProt Q962Y6); test: qHTS Assay for the Inhibitors of Schistosoma Mansoni Peroxiredoxins; details: purified TGR, DTNB reduction, TNB absorbance 405 nm; activity change, negative = inhibition: at 114 µM (top of the series) unless noted; note: nearly all actives have a fitted effect of over 60% in size
Summary of the method: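 First, TGR (20 nM dispensed) and NADPH were mixed with compound. Second, a 15 min room-temperature incubation followed. Third, further NADPH and then DTNB were added to start the reaction. Finally, TNB absorbance was monitored kinetically.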
% is set by controls: 0 for no effect and ±100 for the full control effect; potency is the fitted concentration of half-maximal effect; tags give direction and shape of the fitted curve.

| SMILES | activity change, negative = inhibition | Potency |
| --- | --- | --- |
| O=C(NCCc1ccc(Cl)cc1)c1ccc2c(c1)N(Cc1ccc(Cl)cc1)C(=O)CS2 | inactive: 13.1% | – |
| COc1cc(C(=S)N2CCOCC2)cc(OC)c1OS(=O)(=O)c1ccc(NC(C)=O)cc1 | inactive: -15.4% | – |
| COc1ccc(Cl)cc1C(=O)Nc1nnc2n1CCS2 | inactive: -0.848% | – |
| CCOC(=O)COc1ccc2ccccc2c1/C=C/[N+](=O)[O-] | – | inconclusive: 3.98 µM [inhibitor, full curve, poor fit] |
| Cc1ccnc(NC(=O)Cc2ccc(-c3ccccc3)cc2)c1 | inactive: 28.4% | – |
| COC(=O)c1sccc1NC(=O)c1cc(-c2cccc(C)c2)nc2ccccc12 | – | inconclusive: 89.1 µM [inhibitor, single point] |
| CCn1nc(C(=O)NNC(=O)CCOc2cc(C)ccc2C)c2ccccc2c1=O | inactive: -23.7% | – |
| COC(=O)c1c(N2C(=O)[C@H]3[C@@H](C2=O)[C@]2(C(=O)Nc4c2ccc(C)c4C)N2CCC[C@@H]32)sc(C)c1C | – | active: 56.2 µM |
| Cc1nc2ccc(NC(=O)c3ccc(S(=O)(=O)N(C)c4ccccc4)cc3)cc2s1 | inactive: -9.7% | – |
| COc1cc(/C=N/N2CCCCC2)cc(OC)c1O | – | active: 14.1 µM |
| Nc1nc(-c2ccco2)c(-c2ccco2)s1 | – | active: 20 µM |
| Cc1ccc(OCCc2csc(N)n2)cc1 | inactive: -33.9% | – |
| COc1ccc(NC(=O)c2ccc(COCC(F)(F)F)cc2)cc1OC | – | inconclusive: 3.55 µM [inhibitor, single point] |
| Cc1c(NC(=O)c2ccccc2F)cccc1-c1nc2cccnc2s1 | inactive: 28.6% | – |
| O=C1c2ccccc2C(=O)c2c1ncn2-c1ccccc1 | inactive: -10.9% | – |
| Cc1cc(=O)[nH]c(SCC(=O)NCc2ccco2)n1 | – | inconclusive: 44.7 µM [inhibitor, partial curve] |
| COc1ccccc1-c1cc(C(=O)NCc2ccccc2)no1 | inactive: 12.3% | – |
| CCCCCN(C(=O)CCC(=O)OCC(=O)Nc1ccc(C)cc1F)c1c(N)n(CCCC)c(=O)[nH]c1=O | – | inconclusive: 63.1 µM [inhibitor, partial curve, poor fit] |
| Cc1ccc(CSCc2ccc(C(=O)NCC3CCCO3)o2)cc1 (stereo not drawn) | – | inconclusive: 44.7 µM [inhibitor, partial curve] |
| S=C(NCc1cccs1)Nc1cc(Cl)cc(Cl)c1 | – | active: 11.2 µM |
| Cc1nn(-c2ccccc2)c2c1C(c1ccco1)C(C#N)=C(N)O2 (stereo not drawn) | – | inconclusive: 44.7 µM [inhibitor, partial curve] |
| CCOC(=O)C(=Cc1ccc(-n2ccnc2)cc1)C(=O)OCC | – | active: 12.6 µM |
| O=C(NCC(=O)N1CCOCC1)c1ccccc1 | inactive: 0.509% | – |
| Cc1ccccc1OCC(=O)N1N=C(C(F)(F)F)CC1(O)C(C)(C)C (stereo not drawn) | – | inconclusive: 10 µM [inhibitor, partial curve] |
| Cc1ccc(NC(=S)Nc2cccc(-c3n[nH]c(=S)o3)c2)cc1 | – | active: 12.6 µM |

| SMILES | activity change, negative = inhibition | Potency |
| --- | --- | --- |
| C=C1CCN(C(C(=O)OC)C(C)C)S(=O)(=O)c2ccccc21 (stereo not drawn) | – | inconclusive: 44.7 µM [inhibitor, partial curve] |
| COc1cc(Cl)cc(C(c2c(C(=O)O)[nH]c3ccccc23)c2c(C(=O)O)[nH]c3ccccc23)c1O | inactive: 3.7% | – |
| Cc1ccc(-c2nc3s/c(=C\c4ccco4)c(=O)n3n2)cc1 | – | inconclusive: 35.5 µM [inhibitor, full curve, poor fit] |
| CCO/C=C1/C(=O)N(C(C)=O)c2ccccc21 | – | inconclusive: 39.8 µM [inhibitor, full curve, poor fit] |
| CCOc1ccc(CN2CCN(C3CCSCC3)CC2CCO)cc1 (stereo not drawn) | – | inconclusive: 44.7 µM [inhibitor, partial curve] |
| CCCCC(=O)NC1(C(F)(F)F)NC(=O)N(C)C1=O (stereo not drawn) | – | inconclusive: 100 µM [inhibitor, partial curve, poor fit] |
| CCn1c(=O)n(CC)c2cc(N3CCCC3)c(NC(=O)c3cccc(OC)c3)cc21 | – | inconclusive: 50.1 µM [inhibitor, partial curve] |
| Cc1ccc(-c2[nH]nc3c2C(c2ccoc2)C(C#N)=C(N)O3)cc1C (stereo not drawn) | – | inconclusive: 39.8 µM [inhibitor, partial curve] |
| O=C(CSc1nnc(-c2ccncc2)n1Cc1ccco1)N1c2ccccc2Sc2ccc(Cl)cc21 | – | active: 44.7 µM |
| CC(=O)Nc1ccc(Sc2ccccc2C(=O)O)cn1 | – | inconclusive: 79.4 µM [inhibitor, single point] |
| CC(=O)NC1=NN(C(C)=O)C(C)(c2cccs2)S1 (stereo not drawn) | inactive: 4.1% | – |
| CCOC(=O)C1(Cc2cccc(OC)c2)CCCN(Cc2cc(OC)c(O)c(OC)c2)C1 (stereo not drawn) | – | inconclusive: 56.2 µM [inhibitor, partial curve, poor fit] |
| COc1ccc(C[C@@H]2CN3C(=NC[C@@H]3Cc3ccc(O)cc3)N2C[C@H](C)NC(=O)CCC2CCCCC2)cc1 | – | inconclusive: 39.8 µM [inhibitor, single point] |
| COc1ccc(C(=O)Nc2ccc3ccccc3c2)cc1 | – | inconclusive: 1.41 µM [inhibitor, full curve] |
| CCn1cc2nc(SCc3ccccc3F)n(Cc3ccc(C)cc3)c(=O)c2n1 | inactive: 0.351% | – |
| CCN(Cc1ccccc1)C(=O)CN1C(=O)COc2ccc(S(=O)(=O)N3CCCCCC3)cc21 | – | inactive |
| Cc1ccc(SCc2cc(=O)[nH]c(N3CCCCC3)n2)cc1 | – | inconclusive: 12.6 µM [inhibitor, partial curve] |
| CC(NS(C)(=O)=O)C(c1cccs1)N1CCN(C)CC1 (stereo not drawn) | inactive: -0.225% | – |
| COc1ccc(CN2CCNC(=O)C2CC(=O)NCCCC2CCCC2)c(F)c1 (stereo not drawn) | – | inconclusive: 79.4 µM [inhibitor, single point] |
| O=[N+]([O-])c1ccccc1/C=C/CN1CCCCC1 | – | inconclusive: 2 µM [inhibitor, full curve] |
| O=C(CSCc1ccco1)NC1CCCC1 | – | inconclusive: 44.7 µM [inhibitor, partial curve] |
| Cc1ccc(C(=O)N2CCN(c3ccc(NC(=O)c4cccnc4Cl)cc3)CC2)cc1 | inactive: -19% | – |
| CN(C)N1C(=O)CC(N2CCCCC2)C1=O (stereo not drawn) | – | inconclusive: 50.1 µM [inhibitor, partial curve] |
| CC(C)C[C@H](NC(=O)N1CCn2c1nc1ccccc12)C(=O)NCc1ccco1 | – | inconclusive: 89.1 µM [inhibitor, single point] |
| COc1cc(C(=O)NC(=S)Nc2ccccc2N2CCOCC2)cc(OC)c1OC | – | active: 25.1 µM |

| SMILES | activity change, negative = inhibition | Potency |
| --- | --- | --- |
| CC[C@@]1(O)C(=O)OCc2c1cc1n(c2=O)Cc2cc3c(N)cccc3nc2-1 | – | inconclusive: 50.1 µM [inhibitor, partial curve] |
| Cc1ccc(NC(=S)Nc2ccc(S(=O)(=O)N3CCOCC3)cc2)cc1S(=O)(=O)N1CCOCC1 | – | active: 15.8 µM |
| CCN(CC)C(=O)c1ccc(S(=O)(=O)Cc2ccc(C)cc2)c([N+](=O)[O-])c1 | – | active: 7.94 µM |
| Oc1cccc(C(Nc2nccs2)c2ccc3cccnc3c2O)c1 (stereo not drawn) | – | active: 17.8 µM |
| Cc1cc(C)nc(CCNC(=O)CC2C(=O)NCCN2Cc2ccc(F)cc2Cl)n1 (stereo not drawn) | – | inconclusive: 44.7 µM [inhibitor, partial curve] |
| CCOC(=O)c1sc(NC(=O)CSc2nnc(C(C)C)n2C)nc1C | – | inconclusive: 7.08 µM [inhibitor, full curve, poor fit] |
| CCNC(=S)NCCC1=c2ccccc2=N/C1=C\c1c(O)n(C)c(=O)n(C)c1=O | – | inconclusive: 1.58 µM [inhibitor, full curve] |
| CCCn1nnnc1NCc1cccn1C | – | inconclusive: 44.7 µM [inhibitor, partial curve] |
| COC(=O)c1cnn2c(C(F)(F)F)cc(-c3ccco3)nc12 | – | inconclusive: 56.2 µM [inhibitor, partial curve] |
| Fc1ccccc1COc1cccc(/C=N/n2cnnc2)c1 | inactive: 0% | – |
| COCCNC(=O)c1cc(Br)ccc1Cl | inactive: 0.621% | – |
| CCN(Cc1ccccc1)C(=O)C1CCN(S(=O)(=O)c2c(C)noc2/C=C/c2ccc(C)cc2)CC1 | inactive: -3.36% | – |
| COc1ccccc1CNC(=O)CS(=O)Cc1nc(-c2ccc(OC)c(OC)c2)oc1C (stereo not drawn) | – | inconclusive: 50.1 µM [inhibitor, partial curve] and inconclusive: 44.7 µM [inhibitor, partial curve] |
| Cc1ccc(C(=O)N(C)c2ccc(OCC(=O)N3c4ccc(C)cc4C4CN(C)CCC43)cc2)cc1 (stereo not drawn) | – | inconclusive: 35.5 µM [inhibitor, single point] |
| CCc1nnc(NC(=O)c2ccc(-c3ccc(Cl)cc3)o2)s1 | – | inconclusive: 44.7 µM [inhibitor, partial curve] |
| CC(C)c1ccc(NC(=O)CSc2nc(=O)n(Cc3cccnc3)c3c2CCC3)cc1 | inactive: -17.6% | – |
| C=CCNC(=O)/C(=C/c1ccco1)NC(=O)c1ccc(Br)o1 | – | active: 20 µM |
| CC(=O)Nc1ccc(S(=O)(=O)NC2=C(N3CCN(C)CC3)C(=O)c3ccccc3C2=O)cc1 | – | inconclusive: 50.1 µM [inhibitor, partial curve] |
| Cc1ccc(Cl)cc1NC(=O)CSc1nc(C)c(C)c(C)c1C#N | inactive: 9.4% | – |
| Cc1cccc(C)c1OCc1n[nH]c(=S)o1 | – | active: 31.6 µM |
| O=C(CCc1ccccc1)NNc1cc(N2CCCCC2)nc(N2CCCCC2)n1 | – | inconclusive: 89.1 µM [inhibitor, single point] |
| COc1ccc(S(=O)(=O)Nc2cc(C)c(O)c(S(=O)(=O)c3ccccc3)c2)cc1 | – | active: 56.2 µM |
| CCCn1nc(NS(=O)(=O)c2ccccc2[N+](=O)[O-])c2cc3ccccc3nc21 | – | inconclusive: 28.2 µM [inhibitor, full curve, poor fit] |
